{
  "source": "paper PMC4336329",
  "about": "(PLoS ONE, 2015)",
  "note": "The campaign covered roughly 310,000 compounds. About 14,000 (4.5%) showed an effect of 50% or more. Effects have a minus sign here. The list shows a part of the results.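 Note: peak tail current of the secondary pulse compared with the same well before compound.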",
  "data": [
    {"molecular_target": "human ether-à-go-go-related gene (hERG) potassium channel (human, UniProt Q12809)", "sequence (Q12809 whole entry, looked up)": "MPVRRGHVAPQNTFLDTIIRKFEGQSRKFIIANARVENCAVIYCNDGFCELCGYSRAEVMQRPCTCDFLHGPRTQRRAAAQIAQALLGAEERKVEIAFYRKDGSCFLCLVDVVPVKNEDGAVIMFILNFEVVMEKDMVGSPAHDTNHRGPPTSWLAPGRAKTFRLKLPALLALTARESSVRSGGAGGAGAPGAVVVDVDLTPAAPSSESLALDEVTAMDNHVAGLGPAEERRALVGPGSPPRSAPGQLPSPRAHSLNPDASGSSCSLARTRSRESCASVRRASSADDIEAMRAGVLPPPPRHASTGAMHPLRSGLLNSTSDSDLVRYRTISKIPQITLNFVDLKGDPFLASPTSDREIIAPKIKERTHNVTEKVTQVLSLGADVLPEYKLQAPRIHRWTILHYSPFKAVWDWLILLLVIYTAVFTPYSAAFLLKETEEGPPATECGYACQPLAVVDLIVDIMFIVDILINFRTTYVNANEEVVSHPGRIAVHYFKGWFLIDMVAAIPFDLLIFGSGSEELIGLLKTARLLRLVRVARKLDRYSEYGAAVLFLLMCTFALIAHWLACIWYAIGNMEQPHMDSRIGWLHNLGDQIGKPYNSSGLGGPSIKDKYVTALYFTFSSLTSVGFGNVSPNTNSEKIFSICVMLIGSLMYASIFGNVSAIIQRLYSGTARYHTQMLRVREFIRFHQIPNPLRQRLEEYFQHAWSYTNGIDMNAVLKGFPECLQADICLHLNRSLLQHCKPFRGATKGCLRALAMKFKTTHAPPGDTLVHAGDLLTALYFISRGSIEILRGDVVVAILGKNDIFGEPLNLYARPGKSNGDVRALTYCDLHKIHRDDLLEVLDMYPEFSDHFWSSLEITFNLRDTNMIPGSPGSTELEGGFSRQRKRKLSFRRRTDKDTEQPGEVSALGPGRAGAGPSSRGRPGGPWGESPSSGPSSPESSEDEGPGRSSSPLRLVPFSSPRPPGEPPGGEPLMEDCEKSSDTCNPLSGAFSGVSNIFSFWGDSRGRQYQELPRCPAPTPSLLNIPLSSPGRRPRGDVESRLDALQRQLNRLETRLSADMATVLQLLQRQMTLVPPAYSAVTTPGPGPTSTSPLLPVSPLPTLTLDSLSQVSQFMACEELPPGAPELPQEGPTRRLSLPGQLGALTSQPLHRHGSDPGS", "experiment": "primary screen, population patch clamp on CHO cells stably expressing hERG", "units": {"hERG current change (%, negative = inhibition) at 10uM": "%"}, "values": [
      {"smiles": "OCCN(Cc1ccccc1)Cc1ccc(Cl)cc1Cl", "hERG current change (%, negative = inhibition) at 10uM": -14},
      {"smiles": "CCOc1ccccc1OCC(=O)Nc1cc(S(=O)(=O)N2CCCCC2)ccc1N1CCN(CC)CC1", "hERG current change (%, negative = inhibition) at 10uM": -71.5},
      {"smiles": "Cc1nnc2sc(COc3ccccc3)nn2c1=O", "hERG current change (%, negative = inhibition) at 10uM": 18.7},
      {"smiles": "Cc1ccc(NC(=O)/C=C\\C(=O)NCC(=O)O)cc1", "hERG current change (%, negative = inhibition) at 10uM": 0.434},
      {"smiles": "O=C(CCCN=C1NS(=O)(=O)c2ccccc21)OCC(=O)c1ccccc1Cl", "hERG current change (%, negative = inhibition) at 10uM": -12.8},
      {"smiles": "NC(=O)c1cc(S(=O)(=O)Nc2cccc(F)c2)co1", "hERG current change (%, negative = inhibition) at 10uM": 2.91},
      {"smiles": "Cc1c(NC(=O)C(C)OC(=O)c2cc(Cl)ccc2O)c(=O)n(-c2ccccc2)n1C", "note": "(centres unmarked)", "hERG current change (%, negative = inhibition) at 10uM": 15.3},
      {"smiles": "O=C(CSc1nc2ccccc2[nH]1)NC1CCS(=O)(=O)C1", "note": "(centres unmarked)", "hERG current change (%, negative = inhibition) at 10uM": -6.52},
      {"smiles": "CCOC(=O)C(O)(c1ccc(N(C)C(=O)c2ccc(Cl)c(Cl)c2)cc1)C(F)(F)F", "note": "(centres unmarked)", "hERG current change (%, negative = inhibition) at 10uM": -21.9},
      {"smiles": "Cc1cc(Br)c2[nH]cc(CCNC(=O)c3ccco3)c2c1", "hERG current change (%, negative = inhibition) at 10uM": -27.4},
      {"smiles": "Cc1noc(C)c1CNCc1ccccc1.O=C(O)C(=O)O", "hERG current change (%, negative = inhibition) at 10uM": 19.7},
      {"smiles": "CCCCN(C(=O)c1cccc(-n2cccc2)c1)c1c(N)n(CCC)c(=O)[nH]c1=O", "hERG current change (%, negative = inhibition) at 10uM": 6.24},
      {"smiles": "Cc1ccc(S(=O)(=O)N2CN(Cc3ccco3)c3nc4ccccc4nc32)cc1C", "hERG current change (%, negative = inhibition) at 10uM": 2.04},
      {"smiles": "Cc1ccc(S(=O)(=O)N2CCN(S(=O)(=O)c3ccc(C)cc3)C2c2ccccc2)cc1", "hERG current change (%, negative = inhibition) at 10uM": -3.36},
      {"smiles": "COC(=O)c1ccc(C(=S)N2CCOCC2)cc1", "hERG current change (%, negative = inhibition) at 10uM": -10.5},
      {"smiles": "O=C(NCC1CCCO1)c1ccc(CNS(=O)(=O)c2cccc(Cl)c2)cc1", "note": "(centres unmarked)", "hERG current change (%, negative = inhibition) at 10uM": 17.8},
      {"smiles": "Cc1cc(Br)ccc1OCC(=O)NNC(=O)Cc1ccccc1", "hERG current change (%, negative = inhibition) at 10uM": 4.47},
      {"smiles": "CCCCCC(O)(CCCCC)C(=O)NNc1ccccc1", "hERG current change (%, negative = inhibition) at 10uM": 0.155},
      {"smiles": "CCc1ccc(N(CC(=O)N2CCN(Cc3ccccc3)CC2)S(C)(=O)=O)cc1", "hERG current change (%, negative = inhibition) at 10uM": -10.5},
      {"smiles": "COc1ccc(C(=O)Nc2ccc(Nc3ccccc3)cc2)cc1OC", "hERG current change (%, negative = inhibition) at 10uM": 23.5},
      {"smiles": "COC(=O)c1ccc(C(=O)OCc2nc3cc4ccccc4cc3[nH]2)cc1", "hERG current change (%, negative = inhibition) at 10uM": 2.62},
      {"smiles": "CCOc1ccc(NC(=O)CCC(=O)N2CCSc3ccccc32)cc1", "hERG current change (%, negative = inhibition) at 10uM": -16.3},
      {"smiles": "C=CCNC(=S)NC(=O)c1ccc(C)c(Br)c1", "hERG current change (%, negative = inhibition) at 10uM": 3.39},
      {"smiles": "Cc1cccc(Cn2nc(C)cc2NC(=O)CCCn2ccc([N+](=O)[O-])n2)c1", "hERG current change (%, negative = inhibition) at 10uM": -10.1},
      {"smiles": "COc1ccc(CCNC(=O)c2ccccc2Cl)cc1OC", "hERG current change (%, negative = inhibition) at 10uM": 7.72},
      {"smiles": "COc1ccc(S(=O)(=O)N2CCCC2CNC(=O)c2cccc(OC)c2)cc1", "note": "(centres unmarked)", "hERG current change (%, negative = inhibition) at 10uM": -31.1},
      {"smiles": "O=C1CCCC2=C1C(c1ccncc1)c1c(nc(SCc3ccccc3Cl)[nH]c1=O)N2", "note": "(centres unmarked)", "hERG current change (%, negative = inhibition) at 10uM": 3.87},
      {"smiles": "CC1CCN(C(=O)COc2coc(CN3CCc4ccccc43)cc2=O)CC1", "hERG current change (%, negative = inhibition) at 10uM": -26.1},
      {"smiles": "COc1ccccc1OCCCC(=O)Nc1nccs1", "hERG current change (%, negative = inhibition) at 10uM": 7.81},
      {"smiles": "Cc1ccc2nc(/N=C(\\N)NC(=O)N3c4ccccc4Sc4ccccc43)nc(C)c2c1", "hERG current change (%, negative = inhibition) at 10uM": 1.61},
      {"smiles": "C=CCN1c2ccccc2[C@]23C[C@@H](C(=O)OC)N(C(=O)c4cccs4)C2=NC(C(=O)OC)=C(C(=O)OC)[C@H]13", "hERG current change (%, negative = inhibition) at 10uM": -27.3},
      {"smiles": "Clc1ccc(CN2CCN(c3ccccc3)CC2)cn1", "hERG current change (%, negative = inhibition) at 10uM": 10.4},
      {"smiles": "Cc1cccc(-n2c(=S)[nH]c3ccccc3c2=O)n1", "hERG current change (%, negative = inhibition) at 10uM": 14.8},
      {"smiles": "CN(C)S(=O)(=O)c1ccc(NC=O)cc1", "hERG current change (%, negative = inhibition) at 10uM": 39.3},
      {"smiles": "COc1ccc(C(CC(=O)N2CCC3(CC2)OCCO3)NS(=O)(=O)c2ccc(OC)cc2)cc1", "note": "(centres unmarked)", "hERG current change (%, negative = inhibition) at 10uM": 7.14},
      {"smiles": "Cc1ccc(C2/C(=C(/O)c3ccc(Br)cc3)C(=O)C(=O)N2Cc2ccco2)o1", "note": "(centres unmarked)", "hERG current change (%, negative = inhibition) at 10uM": 24},
      {"smiles": "CCCCCCCC(=O)NNC(=O)c1c(O)c2ccccc2[nH]c1=O", "hERG current change (%, negative = inhibition) at 10uM": 6.82},
      {"smiles": "CC(C)C[C@H](NC(=O)N1CCn2c1nc1ccccc12)C(=O)NCCc1ccccc1", "hERG current change (%, negative = inhibition) at 10uM": -21.2},
      {"smiles": "COc1cc2c(c(OC)c1OC)-c1ccc(NC(=O)c3ccccc3)c(=O)cc1[C@@H](NC(C)=O)CC2", "hERG current change (%, negative = inhibition) at 10uM": -13.4},
      {"smiles": "O=C(N=Nc1c(O)[nH]c2ccc(F)cc12)c1ccc(NS(=O)(=O)c2cccs2)cc1", "hERG current change (%, negative = inhibition) at 10uM": 13.4},
      {"smiles": "Cc1oc(-c2ccc3ccccc3c2)nc1CN(C)C(C)c1ccncn1", "note": "(centres unmarked)", "hERG current change (%, negative = inhibition) at 10uM": -49.8},
      {"smiles": "Cc1ccc(-c2nc(CS(=O)CC(=O)NCCN3CCOCC3)c(C)o2)cc1", "note": "(centres unmarked)", "hERG current change (%, negative = inhibition) at 10uM": 1.94},
      {"smiles": "Cc1c(C)n(CC(O)CN(CCO)CCO)c2ccccc12.Cl", "note": "(centres unmarked)", "hERG current change (%, negative = inhibition) at 10uM": 38.5},
      {"smiles": "CCN1C(=O)CC(c2ccccc2)CC1=O", "hERG current change (%, negative = inhibition) at 10uM": 13},
      {"smiles": "Cc1ccc(S(=O)(=O)N2CCN(C(=O)c3c(-c4ccccc4)noc3C)CC2)cc1", "hERG current change (%, negative = inhibition) at 10uM": -4.97},
      {"smiles": "O=C(NN1C(=O)c2ccccc2NC1c1ccccn1)c1ccc([N+](=O)[O-])cc1", "note": "(centres unmarked)", "hERG current change (%, negative = inhibition) at 10uM": -16.1},
      {"smiles": "Cc1ccc(-c2cc3c(nn2)-c2ccccc2C3=O)cc1", "hERG current change (%, negative = inhibition) at 10uM": 11.7},
      {"smiles": "CN(C)C(=S)Nc1ccc2c(c1)OCO2", "hERG current change (%, negative = inhibition) at 10uM": 18.7},
      {"smiles": "O=c1cc(O)nc[nH]1", "hERG current change (%, negative = inhibition) at 10uM": 17.3},
      {"smiles": "CCN(CC)CCN(C(=O)/C=C/c1cccs1)c1nc2ccc(Cl)cc2s1.Cl", "hERG current change (%, negative = inhibition) at 10uM": 13.7},
      {"smiles": "Cc1cccc(C)c1CC(=O)N1CCOCC1", "hERG current change (%, negative = inhibition) at 10uM": 13.7},
      {"smiles": "CCc1ccccc1NC1c2ccccc2C(=O)N1c1cccnc1", "note": "(centres unmarked)", "hERG current change (%, negative = inhibition) at 10uM": -8.11},
      {"smiles": "CC(C)C[C@H](NC(=O)c1nc[nH]c1C(=O)N[C@@H](CC(C)C)C(=O)OCc1ccccc1)C(=O)OCc1ccccc1", "hERG current change (%, negative = inhibition) at 10uM": 16.2},
      {"smiles": "Cc1[nH]n(-c2ccccc2)c(=O)c1C=Nc1cccc2cccnc12", "hERG current change (%, negative = inhibition) at 10uM": -11.2},
      {"smiles": "N/C(=N\\OC(=O)c1ccc(Cl)cc1)c1ccn[nH]1", "hERG current change (%, negative = inhibition) at 10uM": 14.7},
      {"smiles": "O=C(NCCCN=C1NS(=O)(=O)c2ccccc21)c1ccc(S(=O)(=O)N2CCOCC2)cc1", "hERG current change (%, negative = inhibition) at 10uM": 4.24}
    ]}
  ]
}
